Assay results reported in the supplement of paper PMC12217912.
This is one part of the list. Sequences were assembled here from the parent chain. Inactive controls read about 0.05.

B1: TEV protease; numbered along this chain (parent)
chain: MGESLFKGPRDYNPISSSICHLTNESDGHTTSLYGIGFGPFIITNKHLFRRNNGTLVVQSLHGVFKVKDTTTLQQHLVDGRDMIIIRMPKDFPPFPQKLKFREPQREERICLVTTNFQTKSMSSMVSDTSCTFPSGDGIFWKHWIQTKDGQCGSPLVSTRDGFIVGIHSASNFTNTNNYFTSVPKNFMELLTNQEAQQWVSGWRLNADSVLWGGHKVFMVKPEEPFQPVKEATQL

Variants of: B1
Experiment: raw area under fraction-flipped curve 0-4 h after induction (AUC4h, not background-subtracted), DNA-recorder readout of cleavage of the substrate (dimensionless); higher = more cleavage of the substrate by the protease variant
Conditions: temperature: 34 °C; time window: 0-4 h after rhamnose induction
Experimental: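 In vivo DNA recorder in E. coli TOP10(DE3) ΔrhaA at 34 °C. Each TEVp single-site mutant (parent TEVp 0) is paired with a single-site variant of the 7-mer TEVs (canonical ENLYFQ|S). The substrate sits between flexible linkers in a Bxb1-sfGFP-TEVs-SsrA fusion, so cleavage stabilises Bxb1 and speeds flipping of a recombination array, read by NGS. The value is the raw area under the fraction-flipped curve over 0-4 h after rhamnose induction (AUC4h), with ≥20 reads per time point. It is not background-subtracted; inactive controls average about 0.047.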
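Further: Bxb1 expression induced with 0.2% (w/v) L-rhamnose at OD600 near 0.5, cultures sampled hourly, flipped fraction per protease–substrate barcode pair counted by paired-end Illumina sequencing.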

Row | Variant | area with substrate ENLYFAS | area with substrate ENLYFES | area with substrate ENLYFFS | area with substrate ENLYFGS | area with substrate ENLYFIS | area with substrate ENLYFKS | area with substrate ENLYFMS | area with substrate ENLYFNS | area with substrate ENLYFPS | area with substrate ENLYFRS | area with substrate ENLYFSS | area with substrate ENLYFTS | area with substrate ENLYFDS | area with substrate ENLYFHS | area with substrate ENLYFLS | area with substrate ENLYFVS | area with substrate ENLYFWS | area with substrate ENLYFYS | area with substrate ENLYFCS
1 | MGESLFKGPRDYNPISSSICHLTNESDGHTTSLYGIGFGPFIITNKHLFRRNNGTLVVQSLHGVFKVKDTTTLQQHEVDGRDMIIIRMPKDFPPFPQKLKFREPQREERICLVTTNFQTKSMSSMVSDTSCTFPSGDGIFWKHWIQTKDGQCGSPLVSTRDGFIVGIHSASNFTNTNNYFTSVPKNFMELLTNQEAQQWVSGWRLNADSVLWGGHKVFMVKPEEPFQPVKEATQL [L77E] | 0.0648 | 0.0538 | 0.0604 | 0.0998 | 0.0593 | 0.0583 | 0.061 | 0.0635 | 0.058 | 0.0524 | 0.06 | 0.0741 | – | – | – | – | – | – | –
2 | MGESLFKGPRDYNPISSSICHLTNESDGHTTSLYGIGFGPFIITNKHLFRRNNGTLVVQSLHGVFKVKDTTTLQQHGVDGRDMIIIRMPKDFPPFPQKLKFREPQREERICLVTTNFQTKSMSSMVSDTSCTFPSGDGIFWKHWIQTKDGQCGSPLVSTRDGFIVGIHSASNFTNTNNYFTSVPKNFMELLTNQEAQQWVSGWRLNADSVLWGGHKVFMVKPEEPFQPVKEATQL [L77G] | 0.0472 | 0.0517 | 0.091 | – | 0.0518 | 0.0712 | 0.0575 | 0.0528 | 0.0628 | 0.0674 | 0.0442 | – | 0.0476 | 0.0687 | – | – | – | – | –
3 | MGESLFKGPRDYNPISSSICHLTNESDGHTTSLYGIGFGPFIITNKHLFRRNNGTLVVQSLHGVFKVKDTTTLQQHLVDGRDMIIIRMPKDFAPFPQKLKFREPQREERICLVTTNFQTKSMSSMVSDTSCTFPSGDGIFWKHWIQTKDGQCGSPLVSTRDGFIVGIHSASNFTNTNNYFTSVPKNFMELLTNQEAQQWVSGWRLNADSVLWGGHKVFMVKPEEPFQPVKEATQL [P93A] | 0.0516 | 0.102 | 0.061 | – | 0.0606 | 0.0637 | 0.0715 | 0.063 | 0.0522 | – | – | 0.0388 | – | 0.0679 | 0.0578 | 0.0568 | 0.0398 | 0.0555 | –
4 | MGESLFKGPRDYNPISSSICHLTNESDGHTTSLYGIGFGPFIITNKHLFRRNNGTLVVQSLHGVFKVKDTTTLQQHLVDGRDGIIIRMPKDFPPFPQKLKFREPQREERICLVTTNFQTKSMSSMVSDTSCTFPSGDGIFWKHWIQTKDGQCGSPLVSTRDGFIVGIHSASNFTNTNNYFTSVPKNFMELLTNQEAQQWVSGWRLNADSVLWGGHKVFMVKPEEPFQPVKEATQL [M83G] | 0.0382 | – | 0.0621 | – | 0.0512 | 0.0482 | 0.0523 | – | 0.052 | – | – | 0.0502 | 0.0609 | – | 0.044 | – | – | 0.0535 | 0.0416
5 | MGESLFKGPRDYNPISSSICHLTNESDGHTTSLYGIGFGPFIITNKHLFRRNNGTLVVQSLHGVFKVKDTTTLQQHLVDGRDKIIIRMPKDFPPFPQKLKFREPQREERICLVTTNFQTKSMSSMVSDTSCTFPSGDGIFWKHWIQTKDGQCGSPLVSTRDGFIVGIHSASNFTNTNNYFTSVPKNFMELLTNQEAQQWVSGWRLNADSVLWGGHKVFMVKPEEPFQPVKEATQL [M83K] | 0.0382 | 0.0584 | 0.046 | – | 0.0452 | 0.0541 | 0.0329 | 0.046 | 0.0402 | 0.0542 | – | – | 0.0547 | 0.0606 | – | 0.0434 | – | – | 0.0336
6 | MGESLFKGPRDYNPISSSICHLTNESDGHTTSLYGIGFGPFIITNKHLFRRNNGTLVVQSLHGVFKVKDTTTLQQHLVHGRDMIIIRMPKDFPPFPQKLKFREPQREERICLVTTNFQTKSMSSMVSDTSCTFPSGDGIFWKHWIQTKDGQCGSPLVSTRDGFIVGIHSASNFTNTNNYFTSVPKNFMELLTNQEAQQWVSGWRLNADSVLWGGHKVFMVKPEEPFQPVKEATQL [D79H] | 0.0679 | 0.055 | 0.058 | 0.0638 | 0.0501 | – | – | – | – | 0.0523 | 0.0579 | 0.0518 | – | 0.0425 | – | – | 0.0609 | 0.0929 | –
7 | MGESLFKGPRDYNPISSSICHLTNESDGHTTSLYGIGFGPFIITNKHLFRRNNGTLVVQSLHGVFKVKDTTTLQQHLVDGFDMIIIRMPKDFPPFPQKLKFREPQREERICLVTTNFQTKSMSSMVSDTSCTFPSGDGIFWKHWIQTKDGQCGSPLVSTRDGFIVGIHSASNFTNTNNYFTSVPKNFMELLTNQEAQQWVSGWRLNADSVLWGGHKVFMVKPEEPFQPVKEATQL [R81F] | 0.0625 | 0.0609 | – | 0.0582 | 0.0657 | 0.0543 | – | 0.0533 | 0.0504 | 0.0634 | – | 0.0592 | – | 0.0738 | 0.0576 | – | 0.0607 | 0.0631 | 0.0601
8 | MGESLFKGPRDYNPISSSICHLTNESDGHTTSLYGIGFGPFIITNKHLFRRNNGTLVVQSLHGVFKVKDTTTLQQHLVDGMDMIIIRMPKDFPPFPQKLKFREPQREERICLVTTNFQTKSMSSMVSDTSCTFPSGDGIFWKHWIQTKDGQCGSPLVSTRDGFIVGIHSASNFTNTNNYFTSVPKNFMELLTNQEAQQWVSGWRLNADSVLWGGHKVFMVKPEEPFQPVKEATQL [R81M] | 0.0591 | 0.0705 | 0.0684 | 0.0758 | 0.0596 | 0.0689 | 0.057 | 0.0677 | 0.0684 | – | – | 0.0552 | – | – | – | 0.0667 | 0.0556 | – | 0.0538
9 | MGESLFKGPRDYNPISSSICHLTNESDGHTTSLYGIGFGPFIITNKHLFRRNNGTLVVQSLHGVFKVKDTTTLQQHLVDGRDMIIIRMPKWFPPFPQKLKFREPQREERICLVTTNFQTKSMSSMVSDTSCTFPSGDGIFWKHWIQTKDGQCGSPLVSTRDGFIVGIHSASNFTNTNNYFTSVPKNFMELLTNQEAQQWVSGWRLNADSVLWGGHKVFMVKPEEPFQPVKEATQL [D91W] | 0.0679 | – | 0.0743 | 0.0571 | 0.0611 | – | 0.0564 | 0.0644 | 0.0553 | 0.0621 | – | 0.0724 | 0.0553 | 0.0432 | – | – | 0.051 | 0.0683 | 0.0682
